Data on 19 molecules can be found in PubChem BioAssay AID192 (DTP/NCI, 2004).

For the assay, the system named is BDF1 mice, B16 melanoma ip, median survival T/C. The assay is described as follows: NCI In Vivo Anticancer Drug Screen. Data for tumor model B16 Melanoma (intraperitoneal) in B6D2F1 (BDF1) mice. To be noted: endpoint: median survival time, higher = longer survival. On the procedure:
The antitumor activity of compounds was measured in mice bearing transplantable tumors. Survival or tumor size were measured and the results are expressed as the measurement made in the treated group (T) divided by the measurement made in the vehicle treated control group (C). The tumor model used in this assay is B16 Melanoma (intraperitoneal) in B6D2F1 (BDF1) mice

Inconclusive results and toxic doses are left out. The source holds more than one record for some entries. This is not the full list of results. The source may hold further records. Results that share an entry are repeats across runs, samples, wells, individuals or studies. Numbered stars: 1 amine (or outer) side, 2 acyl side, 3 side chain; on linkers, the order of the positions; unused ones are H or OH. Bridge positions count the residues as written; N and C are the ends. Square brackets hold non-standard residues; d marks the D form. Peptide text beside a SMILES is read from it. I, II: the chains in the order shown. Actinocin(9to1) = Cc1c2oc3c(C)ccc(C(=O)[*:1])c3nc-2c(C(=O)[*:2])c(N)c1=O; aThr = C[C@H](O)[C@H](N)C(=O)O; NMeV = CN[CH](C(=O)O)C(C)C; Aze = O=C(O)[CH]1CCN1; Sar = CNCC(=O)O

`Cc1ccc(S(=O)(=O)NC(=S)S)cc1`: the T/C (dose: 200.0 mg/kg/injection, schedule: Q01DX009 (ip), vehicle: saline with Tween-80) was 91 % of control and 161 % of control.

As to `Cc1ccc(N=Nc2c(O)ccc3ccccc23)c(C)c1`, the T/C is 96 % of control and 150 % of control (dose: 100.0 mg/kg/injection, schedule: Q01DX009 (ip), vehicle: Klucel (hydroxypropylcellulose) (HPC)); 91 % of control and 150 % of control (dose: 200.0 mg/kg/injection, schedule: Q01DX009 (ip), vehicle: Klucel (hydroxypropylcellulose) (HPC)).

Take `CC(=O)NC1CCCCC1`: for the setting “dose: 50.0 mg/kg/injection, schedule: Q04DX003 (ip), vehicle: saline with Tween-80”, the T/C is 90 % of control and 161 % of control.

Consider `COc1cccc2c1C(=O)c1c(O)c3c(c(O)c1C2=O)C[C@@](O)(C(=O)CO)C[C@@H]3OC1CC(N)C(O)C(C)O1` (some centres undefined), for which the T/C reads like this: (dose: 0.25 mg/kg/injection, schedule: Q04DX003 (ip), vehicle: saline) 116 % of control and 161 % of control; (dose: 2.5 mg/kg/injection, schedule: Q01DX001 (ip), vehicle: saline) 122 % of control and 200 % of control; (dose: 3.0 mg/kg/injection, schedule: Q01DX001 (ip), vehicle: saline) 122 % of control and 412 % of control.

Take `COc1ccc(C[C@H](N)C(=O)NC2C(CO)OC(n3cnc4c(N(C)C)ncnc43)C2O)cc1` (some centres undefined): for the setting “dose: 80.0 mg/kg/injection, schedule: Q01DX009 (ip), vehicle: saline”, the T/C is 124 % of control and 177 % of control.

On to `COc1cccc2c1C(=O)c1c(O)c3c(c(O)c1C2=O)C[C@@](O)(/C(C)=N/NC(=O)c1ccccc1)C[C@@H]3OC1CC(N)C(O)C(C)O1` (some centres undefined), for which the T/C (dose: 1.5 mg/kg/injection, schedule: Q04DX003 (ip), vehicle: saline) was 102 % of control and 158 % of control.

`Cc1c2oc3c(C)ccc(C(=O)N[C@@H]4C(=O)N[C@H](C(C)C)C(=O)N5CCC[C@H]5C(=O)N(C)CC(=O)N(C)[C@@H](C(C)C)C(=O)O[C@H]4C)c3nc-2c(C(=O)N[C@@H]2C(=O)N[C@H](C(C)C)C(=O)N3CCC[C@H]3C(=O)N(C)CC(=O)N(C)[C@@H](C(C)C)C(=O)O[C@H]2C)c(N)c1=O` (I: [aThr][dV]P[Sar][NMeV] / II: [aThr][dV]P[Sar][NMeV]; ester I:1-I:C, II:1-II:C; linker I:N-II:N via Actinocin(9to1)): the T/C reads like this: (dose: 112.0 micrograms/kg/injection, schedule: Q04DX003 (ip), vehicle: saline + alcohol) 121 % of control and 157 % of control; (dose: 150.0 micrograms/kg/injection, schedule: Q04DX003 (ip), vehicle: saline) 117 % of control and 158 % of control.

Consider `O=C1C=CC(=O)O1` (tested in a mixture with another compound), for which the T/C (dose: 100.0 mg/kg/injection, schedule: Q04DX003 (ip), vehicle: saline) was 115 % of control and 172 % of control; the T/C (dose: 200.0 mg/kg/injection, schedule: Q04DX003 (ip), vehicle: saline) is given as 120 % of control, 171 % of control, 179 % of control.

With `CCCCCCCCCCCCCCCC(=O)N(C/C=C/CN(CCCN(C)C)C(=O)CCCCCCCCCCCCCCC)CCCN(C)C`, the T/C (dose: 12.5 mg/kg/injection, schedule: Q01DX009 (ip), vehicle: saline with Tween-80) was 93 % of control and 175 % of control.

In the case of `O=[As](O)(O)c1ccc(Nc2nc(Cl)nc(Cl)n2)cc1`, the T/C reads like this: (dose: 12.5 mg/kg/injection, schedule: Q01DX009 (ip), vehicle: Klucel (hydroxypropylcellulose) (HPC)) 100 % of control and 156 % of control; (dose: 25.0 mg/kg/injection, schedule: Q01DX009 (ip), vehicle: Klucel (hydroxypropylcellulose) (HPC)) 100 % of control and 150 % of control.

`CC[C@H]1CN2CCc3cc(OC)c(OC)cc3[C@@H]2C[C@@H]1C[C@H]1NCCc2cc(O)c(OC)cc21`: for the setting “dose: 4.0 mg/kg/injection, schedule: Q01DX009 (ip), vehicle: saline”, the T/C was 122 % of control and 153 % of control.

As to `C1CN(P2(N3CC3)=NP(N3CC3)(N3CC3)=NP(N3CC3)(N3CC3)=N2)CCO1` (centres undefined), the T/C (dose: 50.0 mg/kg/injection, schedule: Q02DX009 (ip), vehicle: saline) was 101 % of control and 191 % of control; the T/C (dose: 64.0 mg/kg/injection, schedule: Q02DX009 (ip), vehicle: saline) was 88 % of control and 318 % of control.

`O=C1c2ccccc2C(=O)c2c(NCCNCCO)ccc(NCCNCCO)c21`: the T/C (dose: 37.5 mg/kg/injection, schedule: Q01DX001 (ip), vehicle: Klucel (hydroxypropylcellulose) (HPC)) was 102 % of control and 161 % of control.

With `Cc1c2oc3c(C)ccc(C(=O)NC4C(=O)NC(C(C)C)C(=O)N5CCC5C(=O)N(C)CC(=O)N(C)C(C(C)C)C(=O)OC4C)c3nc-2c(C(=O)NC2C(=O)NC(C(C)C)C(=O)N3CCC3C(=O)N(C)CC(=O)N(C)C(C(C)C)C(=O)OC2C)c(N)c1=O` (centres undefined) (I: TV[Aze][Sar][NMeV] / II: TV[Aze][Sar][NMeV]; ester I:1-I:C, II:1-II:C; linker I:N-II:N via Actinocin(9to1); configuration not given here), the T/C (dose: 0.6 mg/kg/injection, schedule: Q04DX003 (ip), vehicle: saline + alcohol) was 122 % of control and 156 % of control.

Take `CCCCC(=O)OCC(=O)[C@]1(O)Cc2c(O)c3c(c(O)c2[C@@H](OC2CC(NC(=O)C(F)(F)F)C(O)C(C)O2)C1)C(=O)c1c(OC)cccc1C3=O` (some centres undefined): the T/C is 109 % of control and 164 % of control (dose: 18.75 mg/kg/injection, schedule: Q01DX001 (ip), vehicle: clinical formulation); 123 % of control and 178 % of control (dose: 37.5 mg/kg/injection, schedule: Q01DX001 (ip), vehicle: clinical formulation).

Regarding `C[C@H](CN1CC(=O)NC(=O)C1)N1CC(=O)NC(=O)C1`, the T/C (dose: 400.0 mg/kg/injection, schedule: Q04DX003 (ip), vehicle: water) is 117 % of control and 150 % of control.

Take `O=C1c2c(O)ccc(O)c2C(=O)c2c(NCCNCCO)ccc(NCCNCCO)c21`: the T/C (dose: 0.5 mg/kg/injection, schedule: Q01DX009 (ip), vehicle: saline with Tween-80) was 123 % of control and 155 % of control.

On to `CSC1SCC2C(=O)N(C)C(C(C)C)C(=O)OCC(NC(=O)c3cnc4ccccc4n3)C(=O)NC(C)C(=O)N(C)C1C(=O)N(C)C(C(C)C)C(=O)OCC(NC(=O)c1cnc3ccccc3n1)C(=O)NC(C)C(=O)N2C` (centres undefined), for which the T/C by setting is: (dose: 7.5 micrograms/kg/injection, schedule: Q01DX009 (ip), vehicle: saline) 123 % of control and 165 % of control; (dose: 15.0 micrograms/kg/injection, schedule: Q01DX009 (ip), vehicle: saline with Tween-80) 100 % of control and 158 % of control; (dose: 60.0 micrograms/kg/injection, schedule: Q01DX009 (ip), vehicle: saline with Tween-80) 87 % of control and 175 % of control.

Turning to `Nc1nc(=O)n(C2OC(CO)C(O)C2O)cc1F` (centres undefined), the T/C (dose: 25.0 mg/kg/injection, schedule: Q01DX009 (ip), vehicle: saline) was 112 % of control and 152 % of control.
